# Reference: PMC4336329 (PLoS ONE, 2015)
# Out of some 310,000 compounds screened, about 2,200 (0.71%) showed an effect of 50% or more. The effect is printed as a negative number. This is one part of the list.
# Molecular target: human ether-à-go-go-related gene (hERG) potassium channel (human, UniProt Q12809)
# Assay: primary screen, population patch clamp on CHO cells stably expressing hERG
# Experimental: Briefly, Chinese hamster ovary (CHO) cells stably expressing the hERG channel were dislodged from tissue culture flasks and dispensed into PPC plates. […] During the recording, background leak currents were estimated by a 100 ms step to -80 mV from an initial holding potential of -70 mV and subtracted from the subsequent current measurement. The campaign was conducted in two phases using slight differences in recording protocol. In the first phase, the initial voltage pulse used a 100 ms step to -30 mV from a holding potential of -70 mV, a 2 s conditioning step to +25 mV, and a 2 s test step to -30 mV. During the second phase of the screen, the potential during the conditioning step was raised to +45 mV. In both phases of the campaign, a secondary voltage pulse was applied using the same parameters as the second phase initial pulse. The initial and secondary pulses were applied in the absence of compound, and upon application of 1 μM and 10 μM test concentrations. Small molecule effects on hERG current density were quantified by […].
# Sequence of human ether-à-go-go-related gene (hERG) potassium channel (Q12809 whole entry, looked up): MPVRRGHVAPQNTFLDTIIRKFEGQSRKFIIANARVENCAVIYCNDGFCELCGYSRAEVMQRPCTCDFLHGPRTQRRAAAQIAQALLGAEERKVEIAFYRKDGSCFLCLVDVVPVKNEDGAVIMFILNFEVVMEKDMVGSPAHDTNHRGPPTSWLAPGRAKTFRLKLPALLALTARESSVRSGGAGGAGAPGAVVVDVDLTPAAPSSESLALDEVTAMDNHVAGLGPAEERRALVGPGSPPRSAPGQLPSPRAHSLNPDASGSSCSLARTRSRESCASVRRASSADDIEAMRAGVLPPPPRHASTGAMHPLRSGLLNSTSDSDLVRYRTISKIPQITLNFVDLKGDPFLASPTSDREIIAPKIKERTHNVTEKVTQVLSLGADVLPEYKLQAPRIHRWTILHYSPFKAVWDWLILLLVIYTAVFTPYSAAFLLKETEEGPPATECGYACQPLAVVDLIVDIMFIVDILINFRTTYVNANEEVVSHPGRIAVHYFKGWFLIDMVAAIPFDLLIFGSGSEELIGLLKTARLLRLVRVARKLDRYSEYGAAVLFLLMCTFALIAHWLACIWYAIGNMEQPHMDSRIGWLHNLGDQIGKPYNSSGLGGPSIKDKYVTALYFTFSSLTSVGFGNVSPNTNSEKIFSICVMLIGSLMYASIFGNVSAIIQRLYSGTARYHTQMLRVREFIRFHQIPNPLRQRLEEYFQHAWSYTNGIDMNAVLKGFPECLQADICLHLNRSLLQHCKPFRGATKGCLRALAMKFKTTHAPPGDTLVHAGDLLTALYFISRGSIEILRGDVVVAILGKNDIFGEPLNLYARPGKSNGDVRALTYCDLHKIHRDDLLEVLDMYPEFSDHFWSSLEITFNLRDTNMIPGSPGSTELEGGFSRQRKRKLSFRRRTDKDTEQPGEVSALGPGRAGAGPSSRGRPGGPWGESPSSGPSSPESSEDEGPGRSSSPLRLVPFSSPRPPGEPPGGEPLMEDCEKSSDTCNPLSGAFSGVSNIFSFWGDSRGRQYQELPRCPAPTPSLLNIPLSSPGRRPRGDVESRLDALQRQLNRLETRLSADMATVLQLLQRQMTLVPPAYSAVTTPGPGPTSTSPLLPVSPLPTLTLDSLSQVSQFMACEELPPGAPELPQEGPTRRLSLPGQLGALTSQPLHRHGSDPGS
row,SMILES,"hERG current change (%, negative = inhibition) at 1uM"
1,COc1cc(NC(=O)CSc2nc3ncnc(N)c3[nH]2)c(C(=O)O)cc1OC,15.3%
2,CCOP(=O)(OCC)C(O)c1ccc(Br)cc1 (stereo not drawn),13%
3,Cc1ccc(NC(=O)C(C)S)cc1 (stereo not drawn),12.4%
4,CCOC(=O)C1=C(C)N[C@@]2(O)c3ccccc3C(=O)[C@@]12O,7.65%
5,Cc1csc(SCC(=O)NC(=O)NC(C)C)n1,11.6%
6,NNc1nc2ccccc2c(=O)n1Cc1ccccc1,14.6%
7,Cc1ccc(C(C(=O)NCc2ccco2)N(C(=O)CNC(=O)c2cccs2)c2c(C)cc(C)cc2C)cc1 (stereo not drawn),3.63%
8,Cc1ccc(NC(=O)c2ccnc(C(C)(C)C)c2)cc1,-2.03%
9,COc1cc2c(cc1OC)C(c1ccccc1O)NCC2 (stereo not drawn),10.8%
10,CCOC(=O)C1CCN(S(=O)(=O)c2ccc3c(c2)CC(C)N3C(=O)C2CCC2)CC1 (stereo not drawn),13.7%
11,CCN(c1ccccc1)S(=O)(=O)c1ccc(Cl)c(NC(=O)COC(=O)c2ccc[n+]([O-])c2)c1,-1.23%
12,Cc1c(Cl)cccc1NC(=O)CCCn1nc([N+](=O)[O-])cc1C,6.73%
13,Cc1ccc(OCC(=O)N/N=C/c2cc([N+](=O)[O-])ccc2N2CCCCC2)cc1,-8.13%
14,N#CCC(=O)Nc1ccc(C(=O)OCC(=O)NNC(=O)c2cccs2)cc1,-11.9%
15,Cc1cc(SCC(=O)OCC(=O)NC(C)c2ccccc2)c(C)cc1Br (stereo not drawn),17.4%
16,CCOC(=O)c1oc2ccc(S(=O)(=O)N3CCOCC3)cc2c1C,-5.18%
17,O=C(Cc1nc(-c2ccc([N+](=O)[O-])cc2)cs1)Nc1ccccc1,-2.73%
18,COc1ccc(C(=O)CC(=O)C(=O)Nc2cc(C)ccc2C)cc1,5.04%
19,CNS(=O)(=O)c1cccc(C(=O)OCc2cc(Cl)cc3c2OCOC3)c1,2.49%
20,CSC1=NC(C)N2C(SC)=NC(C)N12 (stereo not drawn),15.5%
21,COCCn1c(SCC(=O)NCc2ccc3c(c2)OCO3)nnc1-c1c[nH]c2ccccc12,4.01%
22,Cn1cc(C(=O)c2ccccc2)cc1-c1nc2ccccc2n1C,-0.481%
23,Cc1cn(C(=O)c2ccccc2)c(=S)n1-c1ccc(Br)cc1,18.8%

row,SMILES,"hERG current change (%, negative = inhibition) at 1uM"
1,Cc1nc(CN2CCN(Cc3nc(C(c4ccccc4)c4ccccc4)no3)CC2)cs1,-4.18%
2,CC(C1CC1)N(C(=O)c1ccccc1O)c1ccccc1 (stereo not drawn),11.1%
3,COc1ccc(NC(=S)NNC(=O)c2cccnc2)cc1OC,14.7%
4,COCc1c(C(=O)N/N=C(/C)c2cccs2)nnn1-c1nonc1N,18.2%
5,O=C(N/N=C/c1ccccc1F)NC12CC3CC(CC(C3)C1)C2,15.6%
6,CCCCN=CC1=C(O)CC(c2ccccc2)CC1=O (stereo not drawn),9.46%
7,Cl.OC(COc1ccccc1F)CN1CCC(Cc2ccccc2)CC1 (stereo not drawn),-55.7%
8,Nc1nc(CN2CCN(C(c3ccccc3)c3ccccc3)CC2)nc(Nc2ccccc2)n1,10.2%
9,Cc1ccc2oc(=O)cc(CN3CCOCC3)c2c1,3.25%
10,COc1ccc2nc(/N=C(\N)NC(=O)C(C)(C)C)nc(C)c2c1,3.44%
11,O=C(CC(Nc1ccccc1)C(=O)O)c1ccccc1 (stereo not drawn),11.2%
12,COC(=O)c1scc(S(C)(=O)=O)c1-n1cccc1,9.69%
13,O=C(c1ccc(Br)cc1)N1CCN(S(=O)(=O)c2ccccc2)CC1,-5.81%
14,N#Cc1ccsc1NC(=O)CN1CCN(Cc2ccccc2)CC1,-41.1%
15,CCC1CCCCN1Cc1nc2c(c(=O)n(C)c(=O)n2C)n1CCCc1ccccc1 (stereo not drawn),6.66%
16,Cc1ccccc1CCNC(=O)C1CC(O)CN1C(=O)Nc1ccccc1 (stereo not drawn),9.44%
17,COc1cccc(CNc2nc3nc(C)c(Cl)c(=O)n3[nH]2)c1,-0.509%
18,CCOC(=O)NC(=O)CSc1nc2ccc(C)cc2[nH]1,14.2%
19,COc1ccccc1NCC(=O)c1ccc(C)c(C)c1,13.9%
20,CC(/C=N/n1c(C2CCCCC2)n[nH]c1=S)=C\c1ccccc1,15.1%
21,O=C(CN1CCOc2ccccc21)NCc1ccco1,6.69%
22,COc1ccc(Cl)cc1S(=O)(=O)N1CCCC(C(=O)NCc2ccccc2)C1 (stereo not drawn),19.1%
23,O=C(CCC(=O)Nc1ccccc1)NNC(=O)c1ccccc1Cl,12.2%

row,SMILES,"hERG current change (%, negative = inhibition) at 1uM"
1,Cc1cc(C)c2c(n1)sc1c(=O)n(-c3ccccc3)c(=O)[nH]c12,20%
2,O=C(CNC(=O)c1ccncc1)N/N=C/c1ccccc1[N+](=O)[O-],9.95%
3,COc1ccc(NC(=O)C2CCCN(S(=O)(=O)c3cccc4nonc34)C2)cc1OC (stereo not drawn),9.19%
4,Cc1ccc(-c2nnc(N3CCN(S(C)(=O)=O)CC3)c3ccccc23)cc1,4.73%
5,CCC(C)n1c(O)c(C=NC(C)c2ccccc2)c(=O)[nH]c1=S (stereo not drawn),19.7%
6,Cc1csc(=O)n1CCC(=O)OCC(=O)Nc1cc(Cl)ccc1[N+](=O)[O-],2.36%
7,O=C(Nc1ccc(Cl)cc1Cl)NC1CCCC1,11.9%
8,CC1CCC2(CC1)NC(=O)N(NC(=O)c1cccc(N(C)C)c1)C2=O (stereo not drawn),7.77%
9,COc1ccc(CCC2(C)NC(=O)NC2=O)cc1 (stereo not drawn),4.47%
10,CC(C)CCn1c(SCCN2CCOCC2)nc2c1c(=O)[nH]c(=O)n2C,1.89%
11,O=C(N/N=C\c1cccs1)c1sccc1-n1cccc1,12.7%
12,Cc1ccc(N=C2C(=S)N(c3ccc(C)cc3)C(=N)N2/N=C/c2ccc(Cl)cc2)cc1,2.05%
13,CCOc1ccc(-n2nc3cc(C)c(N)cc3n2)cc1,15.5%
14,O=C(NCCCN1CCOCC1)/C(=C/c1ccco1)NC(=O)c1ccccc1,22.9%
15,COc1ccc(CNC(=O)N2CCN(c3ccc(F)cc3)CC2)cc1,3.39%
16,CCN1CCN(C(=O)CN(c2cc(OC)ccc2OC)S(C)(=O)=O)CC1,12.3%
17,CCOc1nc(N(C)C)nc(-n2nnc(C(C)=O)c2C)n1,12.3%
18,COc1cc(/C=N/NC(N)=O)cc(Br)c1OCc1ccccc1C,12.8%
19,Cc1cc(C(=O)N/N=C/c2cccnc2)c(C)o1,9.96%
20,O=C(Nc1ccccc1C(=O)Nc1ccccn1)c1ccccc1F,11.2%
21,CCC1CCCCN1Cc1c(O)ccc2c(=O)c(-c3ccccc3OC)coc12 (stereo not drawn),7.86%
22,Cl.NC1C=CC=C(C(=O)O)C1 (stereo not drawn),7.13%
23,CC(C)(C)NC(=O)/C(=C/c1ccccc1F)NC(=O)c1ccc([N+](=O)[O-])cc1,14%

row,SMILES,"hERG current change (%, negative = inhibition) at 1uM"
1,COc1ccc2cc(C)c3nnc(SCC(=O)Nc4cc(OC)c(OC)cc4C(=O)O)n3c2c1,14.5%
2,COCCNC(=O)c1c[nH]c2ccc(S(=O)(=O)Nc3ccc(F)cc3F)cc2c1=O,14.8%
3,Cc1[nH]c2ccccc2c(=O)c1SC(F)(F)C(F)C(F)(F)F (stereo not drawn),6.17%
4,COc1ccc(NC(=O)Cn2nnc(C(=O)NCCc3ccccc3)c2N)c(OC)c1,8.43%
5,C=CCN1C(=O)NC(=O)/C(=C/c2ccc(N(C)C)c(Br)c2)C1=O,12.1%
6,Cc1nc2ccccc2nc1SCC(=O)c1ccccc1,21%
7,COc1ccc(OC2C(=O)N(Cc3ccc(F)cc3)C2c2ccc(OC)c(OC)c2)cc1 (stereo not drawn),7.28%
8,CC1(C)CC(=O)C2=C(C1)Nc1ccccc1N=C2.Cl,-16.2%
9,COc1ccccc1OCCn1cc(/C=C(\C#N)C(=O)NCc2ccco2)c2ccccc21,8.39%
10,CN(Cc1ccccc1)C(=O)COC(=O)c1cc(Cl)nc(Cl)c1,11.7%
11,CN(CC(=O)Nc1ccccc1Cl)C(=O)COC(=O)c1ccc(C(F)(F)F)cc1,5.83%
12,CCOc1ccc(-c2nc(C#N)c(N3CCN(Cc4ccccc4)CC3)o2)cc1,14.5%
13,CCN(CC)CCOc1nnc(-c2ccc(OC)cc2)c2ccccc12,-25.1%
14,O=[N+]([O-])c1ccccc1/C=C/C=N/n1c(-c2ccccc2)n[nH]c1=S,12.9%
15,COc1ccc(OCC(=O)NNC(=O)c2ccc3c(=O)n4c(nc3c2)CCC4)cc1,13.7%
16,O=C(CCC(=O)NCc1ccccc1)NCc1ccccc1,13%
17,COc1cc(NC(=O)COc2ccc(C)c(C)c2)ccc1NC(=O)c1ccco1,6.13%
18,Cn1c(CCn2ccccc2=O)nc2cc(NC(=O)COc3ccccc3)ccc21,-6.23%
19,Cc1ccccc1N1C(=O)C2ON(c3ccccc3)C(c3ccco3)C2C1=O (stereo not drawn),20.4%
20,CC1CCCCC1NC(=O)c1ccc(NS(=O)(=O)c2ccc3[nH]c(=O)[nH]c3c2)cc1 (stereo not drawn),5.04%
21,O=C1CCCN1CN(C(=O)c1ccc2c(c1)OCO2)c1ccc(F)cc1,9.38%
